According to the supplement of paper PMC5499739:
In all, about 16,000 sequences were measured (“Z-score”: median about -0.37, highest 2% from about 3.2 on). The list shows a part of the results.

What follows are sequences tested on RBM10 RRM1-ZnF (GST-tagged construct) (assay: RNAcompete 7-mer binding Z-score; higher = stronger binding preference).
Outline: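 A designed pool of 241 399 RNAs, each up to 41 nt and transcribed from microarray-derived DNA templates, was used at 1.5 nmol with 20 pmol of GST-tagged RBM10 constructs. The mixture, in 1 ml Hepes pH 7.8 buffer with KCl, NaCl, glycerol, DTT, BSA and glutathione Sepharose beads, was held 30 min at 4°C and then washed four times for 2 min at 4°C. Bound RNA was read out by microarray hybridisation, and enrichment of each heptamer motif was scored as a one-sided Z-score over the probes carrying it.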

Compared with GUCUGAG, GUUGUCC is lower in “RNAcompete 7-mer binding Z-score” value: -0.21 for the first, -0.272 for the second.

First: GUCUCAU
Second: UAUACUA
The “RNAcompete 7-mer binding Z-score” value of the first is lower: -0.642 for the first, -0.574 for the second.

First: GACGUUU
Second: AUUAGAG
The “RNAcompete 7-mer binding Z-score” value of the first is lower: -0.591 for the first, 0.283 for the second.

First: GAGAGCA
Second: UAUUUCU
The “RNAcompete 7-mer binding Z-score” value of the first is higher: 0.547 for the first, -0.746 for the second.

Going from AUUCCCU to UCACAGU, the “RNAcompete 7-mer binding Z-score” value rises from -0.756 to -0.448.

Compared with GAUACUA, UGACAGU is lower in “RNAcompete 7-mer binding Z-score” value: -0.175 for the first, -0.207 for the second.

First: AUUGCUA
Second: CAGCUGG
The “RNAcompete 7-mer binding Z-score” value of the first is lower: -0.483 for the first, 0.309 for the second.

Compared with UAUCAGG, GAGCGAG is higher in “RNAcompete 7-mer binding Z-score” value: 0.29 for the first, 3.42 for the second.

Going from CAGGAUG to CGGCGUA, the “RNAcompete 7-mer binding Z-score” value falls from 1.75 to -0.0414.

Going from UGUGCCG to GCUCUCU, the “RNAcompete 7-mer binding Z-score” value falls from -0.227 to -0.74.

Going from GUGCCUU to CGAUCUU, the “RNAcompete 7-mer binding Z-score” value falls from -0.597 to -0.795.

Going from UAAAGUA to CAGGCGU, the “RNAcompete 7-mer binding Z-score” value rises from -0.249 to 0.433.

Going from UGUGCAA to AUAGAUU, the “RNAcompete 7-mer binding Z-score” value falls from -0.00896 to -0.327.

Compared with AUGUGCU, CACCUCA is lower in “RNAcompete 7-mer binding Z-score” value: -0.21 for the first, -0.542 for the second.

Compared with UAUCUUC, GCCCCAC is higher in “RNAcompete 7-mer binding Z-score” value: -0.688 for the first, -0.441 for the second.

Compared with UAGUAAC, ACCUGUG is lower in “RNAcompete 7-mer binding Z-score” value: -0.415 for the first, -0.539 for the second.

Going from GCUUUUA to UUCCGAG, the “RNAcompete 7-mer binding Z-score” value rises from -0.737 to -0.668.

Going from AUUAAUA to GACAUCC, the “RNAcompete 7-mer binding Z-score” value falls from -0.487 to -0.668.

Going from GCCAGCU to GGGCUAC, the “RNAcompete 7-mer binding Z-score” value rises from -0.37 to 1.

First: UAGCUGG
Second: ACCAAUC
The “RNAcompete 7-mer binding Z-score” value of the first is higher: 0.703 for the first, -0.815 for the second.

First: AAGUUAU
Second: UUUGUGC
The “RNAcompete 7-mer binding Z-score” value of the first is higher: -0.389 for the first, -0.672 for the second.

Going from UUUAUCU to AGUUACA, the “RNAcompete 7-mer binding Z-score” value rises from -0.776 to -0.139.

First: UCAUCCG
Second: GCUCACG
The “RNAcompete 7-mer binding Z-score” value of the first is lower: -0.808 for the first, -0.269 for the second.

First: CCACUGG
Second: GAGCGAC
The “RNAcompete 7-mer binding Z-score” value of the first is lower: -0.152 for the first, 0.192 for the second.

Compared with AUGUGGA, ACGGGAC is lower in “RNAcompete 7-mer binding Z-score” value: 2.27 for the first, 1.69 for the second.

Going from UACCUCA to CUAAUAA, the “RNAcompete 7-mer binding Z-score” value rises from -0.72 to -0.578.

Compared with GCCAAUC, GGUCGCC is higher in “RNAcompete 7-mer binding Z-score” value: -0.629 for the first, 0.0268 for the second.

Compared with UAACACG, GGGUCGU is higher in “RNAcompete 7-mer binding Z-score” value: -0.305 for the first, 2.09 for the second.

Going from CUUAUAC to GCACUCC, the “RNAcompete 7-mer binding Z-score” value rises from -0.867 to -0.477.

Compared with UGGUGGU, UUAGUUG is lower in “RNAcompete 7-mer binding Z-score” value: 2.8 for the first, -0.0707 for the second.

Going from GGCAAAA to GUUUGAU, the “RNAcompete 7-mer binding Z-score” value falls from 0.576 to -0.175.

First: GAAUGCC
Second: UUACUAU
The “RNAcompete 7-mer binding Z-score” value of the first is higher: -0.331 for the first, -0.737 for the second.

Going from UUGAGCG to UAAUCUG, the “RNAcompete 7-mer binding Z-score” value falls from 0.329 to -0.701.

Compared with UCUGAUA, UUACUGG is higher in “RNAcompete 7-mer binding Z-score” value: -0.701 for the first, 0.0365 for the second.

First: GUUCGAG
Second: CGGACAA
The “RNAcompete 7-mer binding Z-score” value of the first is lower: -0.00571 for the first, 0.209 for the second.

Compared with CAUCAAA, GCCAAUU is lower in “RNAcompete 7-mer binding Z-score” value: -0.672 for the first, -0.704 for the second.

Going from UUCUUCA to AUAGGCC, the “RNAcompete 7-mer binding Z-score” value rises from -0.815 to -0.272.

First: CGUUACG
Second: GGAGUCG
The “RNAcompete 7-mer binding Z-score” value of the first is lower: -0.295 for the first, 1.44 for the second.

Going from GCUACGA to UGCUAAG, the “RNAcompete 7-mer binding Z-score” value rises from -0.311 to -0.0609.

Compared with AUGCGUC, CGUCUCU is lower in “RNAcompete 7-mer binding Z-score” value: -0.587 for the first, -0.636 for the second.

Compared with GCUUCAU, CGGCAAC is higher in “RNAcompete 7-mer binding Z-score” value: -0.737 for the first, -0.301 for the second.

First: GAUAACA
Second: UCUAUCA
The “RNAcompete 7-mer binding Z-score” value of the first is higher: -0.0187 for the first, -0.584 for the second.

First: CUUUUCG
Second: CGCUAUA
The “RNAcompete 7-mer binding Z-score” value of the first is lower: -0.967 for the first, -0.646 for the second.

First: GUAGAAC
Second: UGCACGC
The “RNAcompete 7-mer binding Z-score” value of the first is higher: 0.54 for the first, -0.405 for the second.

Compared with CCCCCUC, GCUCAGU is lower in “RNAcompete 7-mer binding Z-score” value: -0.376 for the first, -0.597 for the second.

Going from AGACGAA to CGAUGGU, the “RNAcompete 7-mer binding Z-score” value rises from 0.423 to 0.917.

Compared with UCUAACU, GAACAGU is higher in “RNAcompete 7-mer binding Z-score” value: -0.714 for the first, -0.136 for the second.

First: AUACUCC
Second: AAUGUAU
The “RNAcompete 7-mer binding Z-score” value of the first is lower: -0.789 for the first, -0.301 for the second.

Going from UAACCCC to AAUAGAC, the “RNAcompete 7-mer binding Z-score” value rises from -0.535 to -0.11.

Compared with CGACAGA, ACACGAC is lower in “RNAcompete 7-mer binding Z-score” value: -0.204 for the first, -0.509 for the second.

Going from CCGUAUA to CGUCUCG, the “RNAcompete 7-mer binding Z-score” value rises from -0.776 to -0.743.

First: AUAGGCA
Second: AGCGCAU
The “RNAcompete 7-mer binding Z-score” value of the first is higher: 0.686 for the first, -0.529 for the second.

Compared with GUCAGCA, AGCUAAU is lower in “RNAcompete 7-mer binding Z-score” value: 0.274 for the first, -0.49 for the second.

Going from UCUGCUA to AGCACCA, the “RNAcompete 7-mer binding Z-score” value rises from -0.743 to -0.399.

Compared with GCCAUCC, AAGGUAG is higher in “RNAcompete 7-mer binding Z-score” value: -0.72 for the first, 3.69 for the second.

Compared with CGAGUUG, AACGGCG is higher in “RNAcompete 7-mer binding Z-score” value: 0.0268 for the first, 0.43 for the second.

Going from GAAUAAA to UGCGGAU, the “RNAcompete 7-mer binding Z-score” value rises from 0.017 to 0.371.

First: GUAUGCU
Second: CUAUGGA
The “RNAcompete 7-mer binding Z-score” value of the first is lower: -0.0122 for the first, 0.0495 for the second.

First: UCGCCUU
Second: CAAGCUA
The “RNAcompete 7-mer binding Z-score” value of the first is lower: -0.844 for the first, -0.659 for the second.

Going from GUCUCUG to UCCUACG, the “RNAcompete 7-mer binding Z-score” value falls from -0.347 to -0.581.

Compared with UCUCCUG, GACAAUC is higher in “RNAcompete 7-mer binding Z-score” value: -0.701 for the first, -0.561 for the second.

First: GAUGCUU
Second: GUGAGAC
The “RNAcompete 7-mer binding Z-score” value of the first is lower: -0.678 for the first, 0.897 for the second.

Going from GGUUCUG to AUGUACG, the “RNAcompete 7-mer binding Z-score” value falls from 0.615 to 0.371.

First: AAUCCUU
Second: GUGGUGC
The “RNAcompete 7-mer binding Z-score” value of the first is lower: -0.883 for the first, 1.76 for the second.

First: UCGGUGC
Second: CCGUAAC
The “RNAcompete 7-mer binding Z-score” value of the first is higher: 0.0918 for the first, -0.558 for the second.

First: AUGCAGG
Second: UACGGGG
The “RNAcompete 7-mer binding Z-score” value of the first is lower: 1.15 for the first, 3 for the second.

First: GCGACGU
Second: CGAUUAC
The “RNAcompete 7-mer binding Z-score” value of the first is higher: 0.199 for the first, -0.474 for the second.

Compared with GAAGCAG, GAGAGAG is higher in “RNAcompete 7-mer binding Z-score” value: 1.08 for the first, 1.11 for the second.

Compared with GCUAGUG, CAGAAGC is lower in “RNAcompete 7-mer binding Z-score” value: 0.121 for the first, -0.0512 for the second.

Compared with UGCGUGU, UUCAGCC is lower in “RNAcompete 7-mer binding Z-score” value: -0.116 for the first, -0.828 for the second.

First: ACUAUAA
Second: UAGCUUC
The “RNAcompete 7-mer binding Z-score” value of the first is higher: -0.662 for the first, -0.802 for the second.

Going from UGUCCUC to UGGGGAA, the “RNAcompete 7-mer binding Z-score” value rises from -0.753 to 3.66.

First: UUUCACA
Second: ACCUUCA
The “RNAcompete 7-mer binding Z-score” value of the first is higher: -0.714 for the first, -1 for the second.

Going from UGAUCCG to ACCUUCC, the “RNAcompete 7-mer binding Z-score” value falls from -0.675 to -0.919.

First: UACUUAC
Second: AUCGUGC
The “RNAcompete 7-mer binding Z-score” value of the first is higher: -0.464 for the first, -0.487 for the second.

Compared with GGUAAUC, UGUGAGG is higher in “RNAcompete 7-mer binding Z-score” value: 0.699 for the first, 2.01 for the second.

Compared with GGGGCUC, GAUAAGC is lower in “RNAcompete 7-mer binding Z-score” value: 1.3 for the first, 0.199 for the second.

Compared with UGCUUGG, GGAGAAU is higher in “RNAcompete 7-mer binding Z-score” value: 0.0723 for the first, 1.72 for the second.

First: AAUGUAG
Second: ACUAGUA
The “RNAcompete 7-mer binding Z-score” value of the first is higher: 1.06 for the first, -0.435 for the second.

Compared with CAUGGAU, CAGGAUC is lower in “RNAcompete 7-mer binding Z-score” value: 1.48 for the first, 0.0853 for the second.

Going from UGAAUUU to UGACGCG, the “RNAcompete 7-mer binding Z-score” value rises from -0.591 to -0.0967.

First: GAACUGA
Second: UAGCACU
The “RNAcompete 7-mer binding Z-score” value of the first is higher: -0.0772 for the first, -0.288 for the second.

Going from UCUGGCU to UAACUCU, the “RNAcompete 7-mer binding Z-score” value falls from -0.607 to -0.694.

Compared with CCUGCAC, AAAGUAC is higher in “RNAcompete 7-mer binding Z-score” value: -0.639 for the first, -0.0122 for the second.

Compared with GUUCGAC, ACCCUAA is lower in “RNAcompete 7-mer binding Z-score” value: -0.561 for the first, -0.571 for the second.

First: AUCAUAA
Second: UGUAUCA
The “RNAcompete 7-mer binding Z-score” value of the first is lower: -0.587 for the first, -0.334 for the second.

Going from UGCUAUC to CUCACGG, the “RNAcompete 7-mer binding Z-score” value rises from -0.61 to -0.464.

Going from GAUGCAU to UAUAGUG, the “RNAcompete 7-mer binding Z-score” value rises from -0.194 to 0.277.

Compared with CAACGAA, GAUUGCA is higher in “RNAcompete 7-mer binding Z-score” value: -0.49 for the first, -0.00571 for the second.

Going from CAAUUAG to ACUUGCU, the “RNAcompete 7-mer binding Z-score” value falls from -0.035 to -0.74.

Compared with CUGAGGG, AUAGCGA is lower in “RNAcompete 7-mer binding Z-score” value: 1.81 for the first, 0.163 for the second.

In the case of AGAGUAA, the “RNAcompete 7-mer binding Z-score” value is reported as 0.491.
